Assay results taken from patent US20170037129A1.

Assays:
[1] = target: endogenous human CD147 expressed on human cancer cells (human) (UniProt P35613); experiment: flow cytometry on A549 cells
[2] = target: endogenous human CD147 expressed on human cancer cells (human) (UniProt P35613); experiment: flow cytometry on PC-3 cells
[3] = target: endogenous human CD147 expressed on human cancer cells (human) (UniProt P35613); experiment: flow cytometry on K562 cells

B1: C4sh1A5 (antibody, V domains shown)
VH: [about 100 residues skipped]DQDFDYWGQGTLVTVSS
VL: DVVMTQSPSSLSASVGDRVTITCRASQGIATNLAWFQQKPGKAPKSLIYAASSLQSGVPSKFSGSGSGTAFTLTISSLQAEDFGTYYCQQYNNYPYTFGQGTKVEIK
- EC50 [1]: 8.73 nM
- EC50 [2]: 5.2 nM
- EC50 [3]: 5.74 nM
